# Out of some 150,000 compounds screened, about 540 (0.36%) showed an effect of 50% or more. The list shows a part of the results.
# System: Plasmodium falciparum
# Assay: Primary screen in NF54 nanoGlo assay, in single point, at 2uM, 72h; a lower Z score goes with more inhibition
# Type: functional, Erythrocyte
# Conditions: timepoint 72 hour
Structure (SMILES),% Inhibition [%],Z score
O=C1CC[C@H](C(=O)Nc2ccc3oc(-c4cc(F)ccc4Br)nc3c2)CN1,-4,0.59
CC(C)CN(CC(C)C)CN1C(=O)NC2(CCCCCCC2)C1=O,0,0.05
CS(=O)(=O)CCCS(=O)(=O)N1CC(OCCCOc2ccccc2)C1,0,0.05
O=C1COc2ccc(S(=O)(=O)N3CCC[C@H](C(=O)NCCCc4ccccc4)C3)cc2N1,-10,1.8
Cn1cc(C(=O)Nc2cccc(-c3ccc(=O)[nH]n3)c2)cn1,-17,2.55
CC1CN(C(=O)CN2CC(C)OCC2C)CCO1 (stereo not drawn),-13,1.37
CC(C)n1cnnc1CN1CCC[C@H](c2nnc[nH]2)C1,-9,1.19
CS(=O)(=O)c1ccc(S(=O)(=O)Nc2cccc(Nc3nc4ccccc4s3)c2)cc1,-6,1.21
COc1ccc(-c2cc(OCC(N)=O)c3cc(NC(=O)c4ccccc4Cl)ccc3n2)cc1,12,-1.22
CC(=O)NC(C(=O)N1CC(C)OC(C)C1)C(C)C (stereo not drawn),5,-0.64
Clc1ccc(C2Nc3ccc(Cl)cc3C(c3ccccc3)O2)cc1 (stereo not drawn),-4,0.69
CC(C)Cc1cc(C(=O)n2ncc(C#N)c2N)[nH]n1,-7,0.7
CCC1(CC)CCCN(C(=O)c2ccnnc2)CC1,1,-0.17
CC[C@@H](CC#N)NC(=O)Nc1c(C)cc(Br)cc1OC,-2,0.24
CCc1sc(C(=O)NCC(C)C)cc1C,-19,1.72
NC(=O)c1cc(F)ccc1Br,-4,0.41
Cc1ccsc1C(=O)N1CC(n2cnnc2[C@@H]2CCCO2)C1,28,-3.8
Cc1cnn([C@H]2[C@@H]3OC[C@@H](O3)[C@@H](NC(=O)Nc3cccc(F)c3)[C@@H]2O)c1,-8,1.26
C[C@H](NS(=O)(=O)c1ccc2c(c1)CCN2C(=O)N1CCCC1)C(=O)N1CCCCC1,0,-0.04
COCC(=O)Nc1cc(C(=O)N2CC[C@H](N(C)C)C2)c2c(c1)nc(C1CCC1)n2C,-8,1.1
Cc1cc(C(F)(F)F)cc(N2C[C@H]3CC[C@@H](C2)[C@@H]3N)n1,-2,0.41
Cc1ccccc1C1CC1C(=O)N(C)Cc1nnc2n1CCC2 (stereo not drawn),-13,2.48
CN(C)CCN(Cc1ccccc1)C(=O)Nc1c(-c2ccc(Cl)cc2)nn(-c2ccc(F)cc2)c1N,-11,1.17
CCOC(=O)[C@H](C)NC(=O)NC1CCC(F)(F)CC1,-17,2.19
Cc1cnc(NCCOCCO)nc1C,-7,0.79
FC(F)(F)Oc1cccc(-n2ccnc2-c2cc3n(n2)CCCNC3)c1,-1,0.2
CCN(Cc1cnn(CC)c1)S(=O)(=O)c1cc(-c2ccno2)oc1C,-2,0.45

Structure (SMILES),% Inhibition [%],Z score
Cc1cc(CN(C)[C@@H](C)CC(C)C)on1,-5,0.58
Cn1c(=O)c(C(=O)N2CCCc3ccccc32)cc2cccnc21,-8,1.04
NC(=O)CN1CCCCCc2ccccc21,-6,0.63
Cc1nc([C@H](NC(=O)C(C)(F)F)c2ccc(Cl)c(F)c2)no1,-1,0.17
CCOC(=O)N1CCN(C(=O)CCc2nc(O)c3ccccc3n2)CC1,-11,1.18
COc1ccc(-n2cc(C(=O)O)c3c2[C@@H](c2ccccc2)CC(O)=N3)cc1,-16,2.03
Cc1cc(S(=O)(=O)[C@H]2CS(=O)(=O)C[C@@H]2NCCc2ccc(Cl)cc2)ccc1F,5,-0.7
Cc1cc(C)nc(O[C@H]2CCCN(C(=O)c3ccccc3Br)C2)n1,10,-1.38
CN1CCc2[nH]nc(C(=O)NC[C@@H](CO)Cc3ccsc3)c2C1,1,-0.21
COc1cccc(C(=O)NCC2CCN(c3ccnc(C)c3)CC2)c1,22,-2.81
CC1CC(N(C)C(=O)Nc2cn[nH]c2)CCN1Cc1ccccc1 (stereo not drawn),-11,1.72
COc1cc(Br)c(F)cc1S(=O)(=O)N[C@H]1CCN(C)C(=O)C1,-1,0.09
NC(=NOCCN1CC2CCC(C1)O2)c1ccc(N2CCCCC2)nc1,-9,0.79
O=C1c2ccccc2C(=O)N1CN1CCc2ccccc2C1,-11,1.39
Cc1nc(C(=O)N[C@@H]2c3ccccc3CC[C@@H]2O)c(C)[nH]1,-6,0.77
N#Cc1ccnc(NCC2(O)CCCC(C(F)(F)F)C2)c1 (stereo not drawn),-5,0.75
CCn1ccc2ccn(CCNC(=O)c3cc4cccc(OC)c4o3)c(=O)c21,0,-0.06
CC1(C)C(NC(=O)NCCOCC2CC2)C2CCOC21 (stereo not drawn),-15,2.78
O=S(=O)(Cc1c(Cl)cccc1Cl)Nc1cccnn1,1,-0.14
CC(C)NC(=O)Cc1cccc(N(Cc2ccc(F)cc2)C(=O)Cc2cccs2)c1,-5,0.89
CN(C)C(=O)C1CCN([C@H]2CCc3ccccc3NC2=O)CC1,-4,0.7
O=C(NCCN1CCOCC1)[C@H]1CCCN(c2ncccc2-c2noc(C3CCC3)n2)C1,-12,1.8
Cc1c(C(=O)O)sc2ncnc(N3CCCCCCC3)c12,8,-1.49
O=C(NC[C@@]12CNC[C@]1(C(F)(F)F)C2)c1cc2c(o1)CCCC2,-2,0.35
Cc1cccc(CN2CCC(CNC(=O)c3cc4c(=O)n(C)c(=O)n(C)c4s3)CC2)c1,8,-1.31
COCc1cc(CNc2nc3c(c(=O)[nH]2)Cc2ccccc2OC3)n[nH]1,-4,0.52
CN1CCN(C(=O)[C@@H]2Cc3ccccc32)CC1,29,-4.26

# Source: ChEMBL document CHEMBL4888484, “Replenishing the malaria drug discovery pipeline: Screening and hit evaluation of the MMV Hit Generation Library 1 (HGL1) against asexual blood stage Plasmodium falciparum ,using a nano luciferase reporter read-out” (2022)
